The target of one experiment is HER2 (UniProt P04626 fragment, limits assumed). The experiment can be described thus: SPR, target immobilised by amine coupling, binder as analyte. A general note: SPR reads the build-up and loss of mass on a sensor chip optically.
The target of the next experiment is T1, human IL-23 receptor ECD (human, UniProt Q5VWK5 24-355).
T1 construct: extracellular domain
T1 sequence (looked up): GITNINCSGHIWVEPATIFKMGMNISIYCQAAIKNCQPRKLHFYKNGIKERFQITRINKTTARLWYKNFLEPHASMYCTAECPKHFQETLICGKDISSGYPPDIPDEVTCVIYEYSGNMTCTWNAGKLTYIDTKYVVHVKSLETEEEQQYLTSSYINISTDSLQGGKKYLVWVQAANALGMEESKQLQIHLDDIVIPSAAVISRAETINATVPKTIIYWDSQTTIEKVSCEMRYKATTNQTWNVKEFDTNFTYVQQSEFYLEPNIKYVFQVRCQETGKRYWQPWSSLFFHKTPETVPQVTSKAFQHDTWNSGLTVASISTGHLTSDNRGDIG
The description is as above.

The values below come from US20200181263A1 (NUMAB THERAPEUTICS, published 2020).

One may read the Kd as the constant that tells how readily two partners part at equilibrium. High values mean a looser complex, low ones a tighter complex.

B1: PRO821 (other)
chain 1: DIQMTQSPSSLSASVGDRVTITCRASQDVNTAVAWYQQKPGKAPKLLIYSASFLYSGVPSRFSGSRSGTDFTLTISSLQPEDFATYYCQQHYTTPPTFGGGTKLTVLGGGGGSGGGGSGGGGSGGGGS[letters of about 120 residues omitted]GGGGSGGGGSDIQMTQSPSSLSASVGDRVTITCQSSQSVFSNNYLAWFQQKPGQSPKRLIYSASTLASGVPSRFSGSGSGTDFTLTISSLQPEDFATYYCLGSYACSSADCYVFGCGTKVTVLGEPEPEPEPEPEPEPDIQMTQSPSSLSASVGDRVTITCQSSESVYSNNQLSWYQQKPGQPPKLLIYDASDLASGVPSRFSGSGSGTDFTLTISSLQPEDFATYYCAGGFSSSSDTAFGGGTKLTVLG
chain 2: DIQMTQSPSSLSASVGDRVTITCQASENIYSFLAWYQQKPGKAPKLLIYSASKLAAGVPSRFSGSGSGTDFTLTISSLQPEDFATYYCQQTNRYSNPDIYNVFGTGTKVTVLGGGGGSGGGGSGGGGSGGGGSEVQLVESGGGLVQPGGSLRLSCAASGIDFNSNYYMCWVRQAPGKGLEWIGCIYVGSHVNTYYANWAKGRFTISRDNSKNTVYLQMNSLRAEDTAVYYCATSGSSVLYFKFWGQGTLVTVSSGGGGSGGGGSEVQLVESGGGLVQPGGSLRLSCAASGFSLSSNAMGWVRQAPGKGLEYIGIISVGGFTYYASWAKGRFTISRDNSKNTVYLQMNSLRAEDTATYFCARDRHGGDSSGAFYLWGQGTLVTVSSKPKPKPKPKPKPKPEVQLVESGGGLVQPGGSLRLSCAASGFSLSSYDMSWVRQAPGKCLAWIGASYASGPTYYASWAKGRFTISRDNSKNTVYLQMNSLRAEDTATYFCARGGWTGTSHSNIWGQGTLVTVSS
notes: Tetraspecific hetero-dimeric MATCH (Her2, IL23R, CD3, HSA), anti-parallel; diS in anti-CD3 domain, charged linker; also called tetraspecific MATCH assembly
Take B1: the Kd with HER2 is 0.0613 nM; in the experiment with human IL-23 receptor ECD, 0.303 nM.
